Data on 59 molecules can be found in ChEMBL document CHEMBL1201862, “PubChem BioAssay data set” (2004).

Molecules are shown by their SMILES.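 Test compounds were applied to cells in 96-well plates for 48 hours at 5 doses. GI50 marks 50% less growth.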 Active and inactive are the calls of the source. Rule as the data show it: active = GI50 up to about 1.1 µM and inactive = higher.

For this assay, the system named is NCI-H322M. The experiment in a line: inhibition of tumour cell growth, NCI panel, 48 h.
Turning to `Oc1cc(-c2cccc(OC(F)(F)F)c2)nc2ccc(N3CCCC3)cc12`, the GI50 is active: 0.00102 µM. With `Cn1c(=O)c(-c2ccccc2)c(O)c2ccccc21` the figure was inactive: > 100 µM; with `Nc1ccc2c(c1)C(=O)c1ccccc1-2`, inactive: > 100 µM. For the molecule `O=C(O)c1nnsc1COCc1ccccc1`, the GI50 is inactive: > 100 µM. With `COc1nc(Cl)c(Cl)c(Cl)n1.COc1nc(Cl)nc(Cl)c1Cl` the figure was inactive: 9.12 µM; with `O=C(O)[C@H](NS(=O)(=O)c1ccc(F)cc1)c1ccccc1`, inactive: > 100 µM; with `CC(C)(C)[Si](C)(C)OC1(CCc2ccccc2OS(=O)(=O)C(F)(F)F)CCCC=C1COCc1ccccc1` (centres undefined), inactive: > 100 µM. With `N#C/C(=C\c1ccc(Cl)cc1)c1nc2ccccc2c(=O)[nH]1` the figure was inactive: > 100 µM; with `O=C(O[C@@H](/C=C/c1ccccc1)P1(=O)N(Cc2ccccc2)[C@H]2CCCC[C@@H]2N1Cc1ccccc1)c1ccccc1`, inactive: 6.19 µM. The same measure for `CC(C)C(/C=C/c1ccc(Cl)cc1)=N\NC(=O)N/N=C(/C=C/c1ccc(Cl)cc1)C(C)C`: inactive: 27.3 µM; for `COc1ccc(\N=C/C=C/C(=C/COC(C)=O)OC(C)=O)cc1`: inactive: 57.8 µM; for `NNC(=S)N/N=C(\CC1OC(=O)c2ccccc21)c1ccccc1O` (centres undefined): inactive: 31.1 µM. As for `C1CSCCCSCCSCCCSC1`, the GI50 was inactive: > 100 µM.

Regarding `COCC12CCC(OC)C34C5CC6(O)C(OC)C=C(C5C6OC(=O)c5ccccc5)C(C(OC)C13)C4N(C)C2` (centres undefined), the GI50 is inactive: > 100 µM. With `COc1cc2c(cc1Oc1ccc(OC)c3c1CC1c4c(cc(OC)c(OC)c4-3)CCN1C)CC1c3c(cc(OC)c(OC)c3-2)CCN1C` (centres undefined) the figure was inactive: 2.01 µM; with `C/C(=C\COP(=O)(O)OP(=O)(O)O)CC/C=C(\C)CNc1ccc([N+](=O)[O-])cc1`, inactive: > 100 µM. With `CCn1c(-c2ccc(F)cc2)nc2c1C(=O)c1ccccc1C2=O` the figure was inactive: > 100 µM. With `COc1ccc(OC)c(NC(=O)C(=O)C(C(C)=O)c2nc3ccc(Cl)cc3nc2O)c1` (centres undefined) the figure was inactive: > 50 µM; with `COC(=O)NN=C(c1ccc(Cl)cc1)c1ccc(Cl)cc1`, inactive: > 100 µM; with `O=c1c2c3ccccc3[nH]c2c2cccc3c2n1CCC3`, inactive: 46.2 µM. On to `C/C(=N/N)c1ccc2[nH]c3c(C)cc([N+](=O)[O-])c(C)c3c2c1`, for which the GI50 is inactive: 15 µM.

Take `COC1CC(OC(=O)c2ccccc2)C(OC(=O)c2ccccc2)C(C)O1` (centres undefined): the GI50 was inactive: > 100 µM. On to `CC(=O)n1ccc2c(Cl)ncnc21`, for which the GI50 was inactive: > 100 µM. Turning to `Cc1ccc(C)n1-n1c(Cc2ccccc2)n[nH]c1=O`, the GI50 was inactive: > 100 µM. With `COc1cc(C(=O)CC2(O)C(=O)Nc3c(Cl)cc(Cl)cc32)ccc1O` (centres undefined) the figure was inactive: 70.5 µM.

For the molecule `O=C(O)/C=C/C(=O)Nc1nc[nH]n1`, the GI50 was inactive: > 100 µM. With `Cc1cc2[nH]c(Cl)c(/C=C3\C(=O)Nc4ccccc43)c2cc1O` the figure was inactive: 5.79 µM; with `COc1ccccc1N1C(Cl)C(=O)C1c1c[nH]c2ccccc12` (centres undefined), inactive: 55 µM. With `COC(C)(C)OCCN1CCN(CCN2C3=C(C=C(C(C)=O)C3)Sc3ccccc32)CC1` the figure was inactive: 27.7 µM; with `CN(C)CCN1C(=O)N(CCN(C)C)c2c3cc(O)ccc3nc3c([N+](=O)[O-])ccc1c23`, inactive: 7.14 µM; with `O=C1NC(=S)N/C1=C\c1ccc(Sc2ccccc2C(=O)O)s1`, inactive: > 100 µM. `O=C1CC(=O)c2c(Cl)sc(Cl)c21`: the GI50 was inactive: > 100 µM. The same measure for `CC1(C)OC2OC(C(COS(=O)(=O)C(F)(F)F)N=[N+]=[N-])C(OC(=O)c3ccccc3)C2O1` (centres undefined): inactive: > 100 µM; for `COC(=O)C1Cc2c(OC)ccc(OC)c2CC(C(=O)OC)C1=O` (centres undefined): inactive: 60.1 µM.

Regarding `O=C(NCCN1C(=O)CN=C(c2ccc(Cl)cc2)c2cc(Cl)ccc21)OCc1ccccc1`, the GI50 is inactive: 17.3 µM. With `COC(=O)C1(Cc2ccc3c(c2)CCC3)Cc2ccccc2C1O` (centres undefined) the figure was inactive: 20 µM; with `O=C(O)C(F)(OC(F)(F)C(F)(F)C(F)(F)F)C(F)(F)F` (centres undefined), inactive: > 100 µM. With `CCn1c(=O)ccc2ccc(N(CCO)CCO)nc21` the figure was inactive: > 100 µM. Take `O=C(n1c2ccccc2c2nnc(S)nc21)C(F)(F)F`: the GI50 was inactive: > 100 µM. With `C#Cc1cccc(NC(=O)/C=C\C(=O)O)c1` the figure was inactive: > 100 µM. The same measure for `Cc1nc2sc(C(=O)c3ccc(Cl)cc3)c(N)c2c(-c2ccccc2Cl)c1C(=O)Nc1ccccc1`: inactive: 22.9 µM; for `C/C=C\C(CC(=O)O)CC(=O)NCCC1CN(S(=O)(=O)C(F)(F)F)c2ccccc21` (centres undefined): inactive: > 100 µM. With `Cc1cc(N(CCC#N)CCC#N)ccc1/C=C(\NC(=O)/C=C/c1ccccc1)C(=O)Nc1ccc(Cl)cc1` the figure was inactive: 98.4 µM; with `CC(=O)OCc1ccc2oc(=O)c(C(=O)Oc3ccccc3)cc2c1`, inactive: > 100 µM.

In the case of `O=C(O)[C@H]1[C@@H](C2CCCCC2)O[C@@H](C2CCCCC2)O[C@H]1C(F)(F)F`, the GI50 is inactive: 24.8 µM. The same measure for `C/C(COc1ccccc1)=N\NC(N)=S`: inactive: > 100 µM.

Turning to `Cc1cn(CCCCC2=NCCCN2)c(=O)[nH]c1=O`, the GI50 was inactive: > 53.1 µM.

With `COc1cc2c(c(OC)c1OC)-c1ccc(SC)c(=O)cc1C(CC(=O)Oc1ccc([N+](=O)[O-])cc1)C2` (centres undefined), the GI50 was active: 0.124 µM.

Consider `O=C(O)CNc1cc(-c2ccccc2)nc(NCC(=O)O)n1`, for which the GI50 is inactive: > 100 µM.

`CC(C)=CCC[C@@H](C)C1=C(O)C(=O)C(C)=C(Nc2ccccc2)C1=O`: the GI50 was inactive: 17.5 µM.

Turning to `COc1ccc2nc3cc(Cl)ccc3c(NCCCN3CCN(CCCNc4ccc5nnn6c7ccccc7c(=O)c4c56)CC3)c2c1`, the GI50 is inactive: > 21.4 µM. With `CC(C)(C)OC(=O)NC(CCCCNC(=O)OCc1ccccc1)C(=O)NCCNc1ccc(NCCNC(=O)C(CCCCNC(=O)OCc2ccccc2)NC(=O)OC(C)(C)C)c2c1C(=O)c1ccccc1C2=O` (centres undefined) the figure was inactive: > 100 µM; with `CC1=CC(=O)/C(=C/NC(=O)NN)C(=O)O1`, inactive: > 100 µM. `Cc1ccc(S(=O)(=O)Nn2c(S)c(C#N)c(-c3ccc(N(C)C)cc3)c(C#N)c2=O)cc1`: the GI50 is inactive: 55 µM. The same measure for `CC(C)(C)[Si](C)(C)OCCC1CC2(S(=O)(=O)C3=CC=C=C=C3)ON1CC2S(=O)(=O)c1ccccc1` (centres undefined): inactive: > 10 µM.

Regarding `Cc1cc(=O)oc2c(CN3CCCCC3)c(O)ccc12`, the GI50 was inactive: > 100 µM.

On to `CC(=O)c1cccc(NC(=O)C(=O)c2c(O)oc3ccccc3c2=O)c1`, for which the GI50 was inactive: > 100 µM.

`O=C1C(NCCN2CCOCC2)=C(Cl)C(=O)c2ncccc21`: the GI50 is inactive: 1.13 µM. The same measure for `NC1(C(=O)O)CCc2ccc(N(CCCl)CCCl)cc2C1` (centres undefined): inactive: > 100 µM.
